Test results taken from PubChem BioAssay AID894 (National Center for Advancing Translational Sciences (NCATS), 2007).
Among all 150,000 compounds or so, about 6,500 (4.3%) were called active. This list was built around the results that the source calls inconclusive (neither active nor inactive); the mix of calls is not that of the screen. Calls follow the shape of the dose curve; as a rule, active = well fitted inhibition curve with a large enough effect (not every such curve was filed as active); inconclusive = small, poorly fitted or top-dose-only effect, or another doubt; inactive = no such curve, though single readings can be large or run the other way. Potencies of inconclusive entries are left out as doubtful fits.

biological target: 15-hydroxyprostaglandin dehydrogenase [NAD(+)] (Homo sapiens) (UniProt P15428); experiment: qHTS Assay for Inhibitors of HPGD (15-Hydroxyprostaglandin Dehydrogenase); details: purified HPGD, NADH fluorescence kinetic, PGE2 substrate; activity change, negative = inhibition: active compounds read low
Sequence of UniProt P15428 (P15428 whole entry, looked up): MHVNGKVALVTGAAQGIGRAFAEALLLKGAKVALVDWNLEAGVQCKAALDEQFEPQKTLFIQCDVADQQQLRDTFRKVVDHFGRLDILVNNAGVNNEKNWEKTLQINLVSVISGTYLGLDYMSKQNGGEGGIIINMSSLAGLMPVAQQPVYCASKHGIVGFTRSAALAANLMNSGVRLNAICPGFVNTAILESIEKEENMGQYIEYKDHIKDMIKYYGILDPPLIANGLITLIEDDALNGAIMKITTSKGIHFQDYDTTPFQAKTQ
Summary of the method: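 NADH formation kinetics: reaction with 30 uM PGE2 and 1 mM NAD+ (final), 20 nM enzyme, Tris-HCl pH 8 with Tween 20, after 15 min compound preincubation at room temperature. Fluorescence change, last versus first of five reads.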
% is scaled to controls: 0 for no effect and ±100 for the full control effect; potency is read from the fitted curve at half-maximal effect; tags tell the direction and shape of the fitted curve.

Q: COc1ccccc1NC(=O)c1cnc(Nc2ccccc2OC)c2ccccc12 was tested. Which Potency did it give?
A: inconclusive [inhibitor, partial curve]

Q: For CCc1c(C)nc2ncnn2c1N1CCC(C(=O)NCc2ccc3c(c2)OCO3)CC1, which Potency is on record?
A: inconclusive [inhibitor, partial curve, poor fit]

Q: Which Potency does the source give for Cc1ccc(N=C2NC(=O)/C(=C\c3ccsc3)S2)c(C)c1 here?
A: inconclusive [inhibitor, partial curve]

Q: COC(=O)c1sc(-c2ccccc2)cc1NC(=O)c1cc(OC)cc(OC)c1 was tested. Which Potency did it give?
A: inconclusive [inhibitor, partial curve]

Q: Which Potency does the source give for CCn1cc(C(=O)NCc2ccccc2Cl)cn1 here?
A: active: 31.6 µM

Q: For O=C(O)c1cn(C2CC2)c2cc(N3CCNCC3)c(F)cc2c1=O, which Potency is on record?
A: inconclusive [inhibitor, partial curve, poor fit]

Q: Which Potency does the source give for O=C(NC(=S)NNC(=O)c1ccccc1[N+](=O)[O-])c1ccccc1 here?
A: active: 31.6 µM

Q: CC(C)=CCC1=C(O)[C@](O)(CC=C(C)C)C(=O)C(C(=O)CC(C)C)=C1O was tested. Which activity change, negative = inhibition did it give?
A: inactive: -13.7%

Q: For N#Cc1ccccc1Sc1ccccc1C(=O)OCC(=O)NC12CC3CC(CC(C3)C1)C2, which Potency is on record?
A: active: 12.6 µM

Q: How did the Potency turn out when OC(CNCC1CCCO1)COc1ccc(OCC(O)CNCC2CCCO2)cc1 (configuration not stated) was run?
A: inconclusive [inhibitor, single point]

Q: CN1CCN(c2nc3ccccc3nc2C(C#N)C(=O)OC2CCCCC2)CC1 (configuration not stated) was tested. Which activity change, negative = inhibition did it give?
A: inactive: -10.1%

Q: COC(=O)C1=CN(CC2CCCO2)C=C(C(=O)OC)C1c1ccccc1C(F)(F)F (configuration not stated) was tested. Which Potency did it give?
A: inconclusive [inhibitor, partial curve]

Q: Which Potency does the source give for COCCNC(=S)NCCCNc1nc2cc3c(cc2cc1C#N)OCO3 here?
A: inconclusive [inhibitor, partial curve]

Q: Which Potency does the source give for CC1CCCCN1C(=O)c1ccc(COc2ccc([N+](=O)[O-])cc2)o1 (configuration not stated) here?
A: active: 22.4 µM

Q: CCOC(=O)c1sc(=NC(=O)c2cc(OC)c(OC)c(OC)c2)n(C)c1C was tested. Which Potency did it give?
A: inconclusive [inhibitor, partial curve]

Q: How did the activity change, negative = inhibition turn out when Cc1ccc(CNC(=O)COc2ccccc2-c2ccccc2)cc1 was run?
A: inactive: -11.8%

Q: With CCOC(=O)[C@]1(CC(=O)O)CCCC1=O as the compound, how does the activity change, negative = inhibition read?
A: inactive: -8.76%

Q: COc1cc(NC(=O)CSc2nc(C)cs2)cc(OC)c1 was tested. Which activity change, negative = inhibition did it give?
A: inactive: -12.2%

Q: Which Potency does the source give for CS(=O)(=O)c1ccc2c(c1)SC1=NC(=O)/C(=C/c3ccco3)C(=N)N12 here?
A: inconclusive [inhibitor, partial curve]

Q: For COc1ccc(-n2ncc3c(N4CCCCC4)ncnc32)cc1, which Potency is on record?
A: inconclusive [inhibitor, partial curve]

Q: With Cc1cc(C)c(C#N)c(SCS(=O)c2ccc(C(C)(C)C)cc2)n1 (configuration not stated) as the compound, how does the Potency read?
A: active: 15.8 µM

Q: With COc1ccc(NC(=O)N2CCC3(CC2)CCN(S(C)(=O)=O)CC3)cc1 as the compound, how does the activity change, negative = inhibition read?
A: inactive: -4.81%

Q: With COCCCn1c(SCc2nnc(-c3ccc(OC)c(OC)c3)o2)nc2ccccc2c1=O as the compound, how does the Potency read?
A: active: 20 µM

Q: Which Potency does the source give for CCCCc1c(C)c(C#N)c2nc3ccccc3n2c1Cl here?
A: inconclusive [inhibitor, single point]

Q: For Cc1cc(C)c2c(n1)nn1c(NCCOCCO)cc(C)nc21, which Potency is on record?
A: inconclusive [inhibitor, partial curve]

Q: CN(C(=O)c1cccc(N2C(=O)C3CC=CCC3C2=O)c1)C1CCCCC1 (configuration not stated) was tested. Which Potency did it give?
A: inconclusive [inhibitor, partial curve]

Q: How did the Potency turn out when COc1ccc(OCC(=O)Nc2cc(-c3nn(C)c(=O)c4ccccc34)ccc2OC)cc1 was run?
A: inconclusive [inhibitor, partial curve]

Q: How did the Potency turn out when Clc1ccccc1CSc1ncn(-c2ccccc2)n1 was run?
A: active: 17.8 µM

Q: CCOC(=O)CSC1=NC(=O)/C(=C\c2ccc(Cl)cc2)S1 was tested. Which Potency did it give?
A: active: 2.24 µM

Q: For Cc1cccc(N2CC(O)=C(c3nc4ccccc4n3C)C2=N)c1, which Potency is on record?
A: active: 11.2 µM

Q: Which Potency does the source give for COC(=O)/C=c1\sc2ncnn2c1=O here?
A: inconclusive [inhibitor, single point]

Q: For Cc1cc(C(C#N)c2cccc(Cl)c2)n2ncnc2n1 (configuration not stated), which Potency is on record?
A: inconclusive [inhibitor, single point]

Q: O=C(C1CCN(S(=O)(=O)N2CCC3(CC2)OCCO3)CC1)N1CCc2ccccc2C1 was tested. Which Potency did it give?
A: inconclusive [inhibitor, single point]

Q: CCN(CC)CCN1C(=O)c2ccccc2NC1c1cccc(F)c1 (configuration not stated) was tested. Which Potency did it give?
A: inconclusive [inhibitor, partial curve, poor fit]

Q: With CC1CCCN(C(=O)c2ccc3c(=O)n(Cc4ccc5c(c4)OCO5)c(=S)[nH]c3c2)C1 (configuration not stated) as the compound, how does the Potency read?
A: active: 5.01 µM

Q: For CCC(CC)COC(=O)C(C#N)c1nc2ccccc2nc1N1CCOCC1 (configuration not stated), which activity change, negative = inhibition is on record?
A: inactive: -27.9%

Q: How did the Potency turn out when CCOC(=O)c1c(-c2ccccc2Cl)cn2ccccc12 was run?
A: inconclusive [inhibitor, partial curve]

Q: With C#CCOC(=O)NC(/C=C/CCCC)c1ccccc1 (configuration not stated) as the compound, how does the activity change, negative = inhibition read?
A: inactive: -8.64%

Q: Which Potency does the source give for CC(C)CC(=O)NC(=S)Nc1ccc(NC(=O)c2cccs2)cc1 here?
A: active: 7.94 µM

Q: With COc1cc2nc(=S)n3[nH]c(CCn4c(C)nc5ccccc54)nc3c2cc1OC as the compound, how does the Potency read?
A: inconclusive [inhibitor, single point]

Q: How did the Potency turn out when CCn1c(/C=C/c2ccccc2)nc2ccccc21 was run?
A: inconclusive [inhibitor, partial curve]

Q: How did the Potency turn out when Cc1cc(N2CCN(C(=O)c3ccco3)CC2)n2nc(-c3cccc(Cl)c3)cc2n1 was run?
A: inconclusive [inhibitor, partial curve]

Q: How did the Potency turn out when COc1ccc(-c2nnc(-c3ccc(N)cc3)o2)cc1 was run?
A: inconclusive [inhibitor, partial curve]

Q: Which activity change, negative = inhibition does the source give for O=C(NCc1cccnc1)c1ccccc1[N+](=O)[O-] here?
A: inactive: -9.87%

Q: For COC(=O)c1cccc(NC(=O)CCc2ccccc2)c1, which Potency is on record?
A: active: 25.1 µM

Q: For Cc1cc(NC(=O)CSc2nc3ccccc3c(=O)n2C2CCCC2)no1, which activity change, negative = inhibition is on record?
A: inactive: -0.771%

Q: Which Potency does the source give for O=c1c(S(=O)(=O)c2ccc(Cl)cc2)cn(Cc2ccccc2F)c2ccc(F)cc12 here?
A: inconclusive [inhibitor, single point]
